# Among all 410,000 compounds or so, about 6,400 (1.6%) were called active. Inconclusive results, whose numbers are uncertain, are shown with a selection of clear calls. Calls come from the whole dose curve; as a rule, active = well fitted inhibition curve with a large enough effect; inconclusive = small, poorly fitted or top-dose-only effect; inactive = no such curve, though single readings can be large or run the other way. No potency is given beside an inconclusive call; the fits are too rough.
# Biological target: Glucagon-like peptide 1 receptor (Homo sapiens) (UniProt P43220)
# UniProt P43220, sequence (P43220 whole entry, looked up): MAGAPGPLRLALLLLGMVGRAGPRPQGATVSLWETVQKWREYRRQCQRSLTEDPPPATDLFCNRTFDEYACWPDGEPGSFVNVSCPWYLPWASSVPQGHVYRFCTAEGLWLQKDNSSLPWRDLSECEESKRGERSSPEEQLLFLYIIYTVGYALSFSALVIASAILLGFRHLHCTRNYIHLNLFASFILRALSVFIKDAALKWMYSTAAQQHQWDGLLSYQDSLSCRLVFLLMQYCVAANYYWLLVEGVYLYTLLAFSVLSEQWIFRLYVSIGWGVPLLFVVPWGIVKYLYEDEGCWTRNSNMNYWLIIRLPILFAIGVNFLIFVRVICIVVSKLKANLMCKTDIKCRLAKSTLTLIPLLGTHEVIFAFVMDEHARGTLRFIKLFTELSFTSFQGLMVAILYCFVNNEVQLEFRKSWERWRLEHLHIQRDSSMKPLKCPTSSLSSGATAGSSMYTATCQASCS
# Assay: qHTS of GLP-1 Receptor Inverse Agonists (Inhibition Mode); note: nearly all actives have a fitted effect of over 55% in size
# Settings: HEK293 GLP-1R CRE-luciferase, luminescence, 24 h, GLP-1R form is constitutively active; activity change, negative = inhibition: at 38.3 µM (top of the series) unless noted
# In short: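 GLP-1R inverse agonism mode: basal reporter luminescence in engineered HEK293 cells measured after one day of compound exposure at 37 deg C, with a 12 min room-temperature detection step.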
# % is set by controls: 0 for no effect and ±100 for the full control effect; potency is the fitted concentration of half-maximal effect; tags give direction and shape of the fitted curve.
SMILES,Potency,"activity change, negative = inhibition"
COc1ccc(Cl)cc1NC(=O)CN(C)C(=O)c1n[nH]c2ccccc12,"inconclusive [inhibitor, partial curve, poor fit]",
O=C1c2cccc3c([N+](=O)[O-])ccc(c23)C(=O)N1CC1CCCO1 (stereo not given),"inconclusive [inhibitor, single point]",
O=C(/C=C1\OCc2cc(OCc3ccccc3)ccc21)OCc1ccccc1,"inconclusive [inhibitor, single point]",
O=[N+]([O-])c1ccc(Nc2nc(NC3CCCCC3)nc(N3CCCC3)n2)cc1,"inconclusive [inhibitor, full curve, poor fit]",
Cc1ccccc1NC(=O)/C=C/c1cccc(C(F)(F)F)c1,"inconclusive [inhibitor, single point]",
CN(C)c1oc(-c2ccc(OCc3ccccc3)cc2)nc1C#N,,inactive: -9.07%
COc1cc(C(CC(=O)Nc2ccc(Cl)cn2)N2Cc3ccccc3C2=O)cc(OC)c1OC (stereo not given),,inactive: -17.8%
O=[N+]([O-])c1ccc(N=Cc2ccc(Br)c([N+](=O)[O-])c2)cc1,"inconclusive [inhibitor, single point]",
CCc1ccc2oc(=O)cc(CN3CCCCC3)c2c1,"inconclusive [inhibitor, single point]",
NC1=Nc2cccc3cccc1c23,"inconclusive [inhibitor, single point]",
OC(CN1CCCCC1)CN(c1ccccc1)c1ccccc1 (stereo not given),"inconclusive [inhibitor, single point]",
CN1CCN(C(=O)/C(=C/c2cccc([N+](=O)[O-])c2)NC(=O)c2ccccc2)CC1,"inconclusive [inhibitor, full curve, poor fit]",
Cc1ccc(-c2cn3c(n2)CCCC3)cc1,"inconclusive [inhibitor, single point]",
CCOC(=O)c1cc2c(=O)n3ccccc3nc2n(CCOC)c1=NC(=O)c1ccncc1,,inactive: 62.9%
Cc1nn(Cc2cccc(C(=O)NC34CC5CC(CC(C5)C3)C4)c2)c(C)c1Br,active: 2.82 µM,
COc1ccc([C@H](NC(=O)OC(C)(C)C)C(=O)OC(C)(C)C)cc1,"inconclusive [inhibitor, partial curve, poor fit]",
Cc1ccc(S(=O)(=O)N(C)Cc2ccc(C(=O)NN=C(CC(C)C)CC(C)C)cc2)cc1,"inconclusive [inhibitor, partial curve, poor fit]",
CCc1cccc(NC(=O)CN(C)S(=O)(=O)c2cccs2)c1,"inconclusive [inhibitor, single point]",
COc1cccc(CC2(CO)CCCN(Cc3ccc(CN4CCCCC4)s3)C2)c1 (stereo not given),"inconclusive [inhibitor, partial curve, poor fit]",
COc1ccccc1-n1c([S-])c(C(=O)Nc2ccccc2C(F)(F)F)[n+]2ccc(C(=O)NCCO)cc12,"inconclusive [inhibitor, partial curve, poor fit]",

SMILES,Potency,"activity change, negative = inhibition"
COc1ccc(C(=O)NCCCc2nc3ccccc3n2Cc2cc(C)ccc2C)cc1OC,"inconclusive [inhibitor, single point]",
CC1Sc2ccc(S(=O)(=O)NCCc3ccccc3)cc2NC1=O (stereo not given),"inconclusive [inhibitor, single point]",
CCC(=O)N1CCc2cc(S(=O)(=O)CCC(=O)Nc3ccc(Cl)c(C(F)(F)F)c3)ccc21,,inactive: -7.64%
CCn1nc(C)c(CN2CCC(C(=O)Nc3cccc(-c4cccc(F)c4)c3)CC2)c1C,"inconclusive [inhibitor, full curve, poor fit]",
CC(C)Oc1ccc(C(=O)NC2(C(F)(F)F)NC(=O)N(CCCc3ccccc3)C2=O)cc1 (stereo not given),"inconclusive [inhibitor, partial curve, poor fit]",
N#C/C(=C\c1c(Cl)cccc1Cl)c1nn(-c2ccccc2)c(-n2cccc2)c1C#N,"inconclusive [inhibitor, full curve, poor fit]",
CCOC(=O)c1c(C)[nH]c(C)c1C(=O)CSc1nc2ccccc2c(=O)n1-c1ccccc1C,"inconclusive [inhibitor, single point]",
CCOC(=O)C1CCCN(S(=O)(=O)c2c(C)c(C)cc(C)c2C)C1 (stereo not given),"inconclusive [inhibitor, single point]",
O=C(COc1ccc(Cl)cc1)Nc1ccc(CN2CCOCC2)cc1,"inconclusive [inhibitor, single point]",
Cc1ccc2[nH]cc(CCNC(=O)c3cccs3)c2c1,,inconclusive: -32.9% [inhibitor]
CCC1CCCCN1C(=O)COC(=O)c1n[nH]c2ccccc12 (stereo not given),"inconclusive [inhibitor, single point]",
O=C(c1ccccc1)c1ccc(C(=O)N2CCN(c3ccccc3)CC2)cc1,"inconclusive [inhibitor, single point]",
Cc1ccc(N(CC(C)C)S(=O)(=O)c2nnc(NC(=O)c3ccco3)s2)cc1,"inconclusive [inhibitor, partial curve, poor fit]",
c1ccc(C2=Nc3c(ccc4ccccc34)C(c3ccncc3)=NN2)cc1,"inconclusive [inhibitor, partial curve, poor fit]",
O=C(COC(=O)C(Cc1c[nH]c2ccccc12)NC(=O)c1ccc(Br)cc1)c1ccc(Cl)cc1 (stereo not given),"inconclusive [inhibitor, partial curve, poor fit]",
COc1ccccc1NC(=O)NCc1ccco1,,inactive: -14.1%
O=C(Nc1ccc(N2CCOCC2)cc1)c1cccc(-n2cnnc2)c1,,inactive: 6.3%
O=C(Nc1cccc2ccccc12)C1CCN(C(=O)Cc2ccccc2)CC1,"inconclusive [inhibitor, single point]",
S=C(c1ccc(-c2ccccc2Cl)o1)N1CCCCC1,"inconclusive [inhibitor, single point]",
CCCCNc1c(-c2ccc(-c3ccc(OC)cc3)c(OC)c2)nc2ccccn12,"inconclusive [inhibitor, partial curve, poor fit]",
